“And” between values parts separate entries of the source, which are not always exact repeats. Equal values may be shown once. Read-outs that look alike come from different tables or passages of the source.
B1: mAb10915 (antibody)
heavy: EVQLVESGGGLVQPGGSLRLSCAASGFTVSSNYMNWVRQAPGKGLEWVSVIYSGGSTFYADSVKGRFTISRHNSKNTLYLQMNSLRPEDTAVYYCARDLGGYFDYWGQGTLVTVSS[human IgG1 constant region left out here]
light: [about 100 residues left out here][about 120 residues left out here]
B2: mAb10982 (antibody)
heavy: EVQLVESGGGLVQPGGSLRLSCAASGLTVSSNYMSWVRQAPGKGLEWVSVIYSGGTTYYADSVKGRFTISRHNSKNTLSLQMNSLRAEDTAVYYCARGEGANYYGMDVWGQGTTVTVSS[human IgG1 constant region left out here]
light: QSVLTQPPSVSGAPGQRVTISCTGSSSNIGTGYDVHWYQQLPGTAPKLLIYGNSNRPSGVPDRFSGSKSGTSASLAITGLQAEDEADYYCQSYDSSLSGYVVFGGGTKLTVLGQPKAAPSVTLFPPSSEELQANKATLVCLISDFYPGAVTVAWKADSSPVKAGVETTTPSKQSNNKYAASSYLSLTPEQWKSHRSYSCQVTHEGSTVEKTVAPTECS
B3: mAb10939 (antibody)
heavy: EVQLVESGGGLVQPGGSLRLSCAASGLTVSSNYMNWVRQVPGKGLEWVSVIYSGGSKFYVDSVKGRFTISRHNSKNTLYLQMNSLRPEDTAVYYCTRDAQYYGMDVWGQGTTVTVSS[human IgG1 constant region left out here]
light: DIQMTQSPSSLSASVGDRVTITCRASQSISTYLHWYQQKPGEAPKLLIYAASSLQSGVPSRFSGSGSGTDFTLTISSLQPEDFATYYCQQSYSTPPEIFGQGTKLEIKRTVAAPSVFIFPPSDEQLKSGTASVVCLLNNFYPREAKVQWKVDNALQSGNSQESVTEQDSKDSTYSLSSTLTLSKADYEKHKVYACEVTHQGLSSPVTKSFNRGEC

Tests used:
[1] = target: T1, SARS-COV-2-S RBD extracellular domain expressed with a C-terminal myc-myc-hexahistidine (SARS-COV-2 RBD-MMH) (SARS-CoV-2); conditions: remark: other sources report otherwise
[2] = target: T1, SARS-COV-2-S RBD extracellular domain …; conditions: remark: other sources report otherwise; remark: listed apart in the source

Binder	t½ [1] [min]	t½ [2]
B1	7.7	15.5 min and 5.6 min
B2	1.5	1.8 min
B3		1 min

— US20230348569A1
